For some of these results: The hits were mostly taken out for another list; the other results follow. Records with an inconclusive call do not appear. Only a part is listed here, and it is no random draw. Activity calls are given as the source filed them. The calls were made as follows, unless noted: active = hit-call score of the fitted dose curve at least 0.9, where 1 is the maximum; inactive = score below 0.9.
Columns and labels:
[1] = read-out: Intercellular Adhesion Molecule 1 (ICAM1), ICAM1 (gene 3383); assay: BSK_3C_ICAM1: BioMAP Diversity Plus: 3C Assay for Intercellular Adhesion Molecule 1 (ICAM1) Biomarker Activity (AID 2283003); settings: actives raise or lower the signal; primary human endothelial cells (HUVEC)
Outline: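 Human vascular endothelial primary cells, 3C conditions, 24 h treatment. ICAM-1 by ELISA.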

[2] = BSK_3C_SRB: Viability Assessment in the BioMAP Diversity Plus: 3C Assay (AID 2283023); settings: primary human endothelial cells (HUVEC);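 also: fitted both ways against DMSO so a hit may be signal rise or drop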
Outline: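 Primary human umbilical vein endothelial cells in the 3C system were read 24 h after compound dosing. Total protein was stained with 0.1% sulforhodamine B after 10% TCA fixation and read at 560 nm, with bidirectional fitting against DMSO as baseline.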

[3] = BSK_3C_Vis: BioMAP Diversity Plus: 3C Assay for Morphology Visualization (AID 2283025); settings: primary human endothelial cells (HUVEC);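 also: light microscopy image of cell morphology used as background control; fitted both ways so gain or loss versus DMSO counts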
Outline: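 Endothelial cells from human umbilical vein were treated with test chemicals for 24 h and inspected by light microscopy for changes in cell conformation.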

[4] = read-out: Human Leukocyte Antigen - DR isotype (HLADR), HLA-DRA (gene 3122); assay: BSK_BE3C_HLADR: BioMAP Diversity Plus: BE3C Assay for Human Leukocyte Antigen - DR isotype (HLADR) Biomarker Activity (AID 2283032); settings: actives raise or lower the signal; primary human bronchial epithelial cells
Outline: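 Signal came from an ELISA for HLA-DR in human bronchial epithelial primary cells harvested 24 h after treatment; gain- and loss-of-signal fitting used DMSO controls as reference.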

[5] = read-out: Collagen III, COL3A1 (gene 1281); assay: BSK_hDFCGF_CollagenIII: BioMAP Diversity Plus: hDFCGF Assay for Collagen III Biomarker Activity (AID 2283056); settings: actives raise or lower the signal; primary human foreskin fibroblasts
Outline: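 Human foreskin primary fibroblasts were exposed to test chemicals for 24 h, after which collagen III was quantified by ELISA. Activity was fitted bidirectionally against DMSO as negative control and baseline.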

[6] = read-out: Epidermal growth factor receptor (EGFR), EGFR (gene 1956); assay: BSK_hDFCGF_EGFR: BioMAP Diversity Plus: hDFCGF Assay for Epidermal growth factor receptor (EGFR) Biomarker Activity (AID 2283057); settings: actives raise or lower the signal; primary human foreskin fibroblasts
Outline: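 Measured by ELISA: EGFR levels on primary human foreskin fibroblasts 24 h after chemical treatment, analysed relative to DMSO with bidirectional fitting.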

[7] = read-out: TIMP metallopeptidase inhibitor 1 (TIMP1), TIMP1 (gene 7076); assay: BSK_hDFCGF_TIMP1: BioMAP Diversity Plus: hDFCGF Assay for TIMP metallopeptidase inhibitor 1 (TIMP1) Biomarker Activity (AID 2283062); settings: actives raise or lower the signal; primary human foreskin fibroblasts
Outline: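 Primary human foreskin fibroblasts in the hDFCGF system were dosed with compound for 24 h, then TIMP-1 was measured by ELISA. Activity was fitted bidirectionally relative to DMSO control; parallel SRB staining assessed cytotoxicity.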

[8] = read-out: Interleukin-1 alpha (IL1a), IL1A (gene 3552); assay: BSK_LPS_IL1a: BioMAP Diversity Plus: LPS Assay for Interleukin-1 alpha (IL1a) Biomarker Activity (AID 2283080); settings: actives raise or lower the signal; primary human HUVEC with PBMC
Outline: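 Human umbilical vein endothelial cells co-cultured with peripheral blood mononuclear cells were LPS-stimulated and exposed to test chemicals for 24 h. IL-1 alpha was quantified by ELISA, with bidirectional curve fitting against DMSO as the negative control and baseline.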

[9] = read-out: Monocyte Chemoattractant Protein-1 (MCP1), CCL2 (gene 6347); assay: BSK_SAg_MCP1: BioMAP Diversity Plus: SAg Assay for Monocyte Chemoattractant Protein-1 (MCP1) Biomarker Activity (AID 2283090); settings: actives raise or lower the signal; primary human HUVEC with PBMC
Outline: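 MCP-1 levels in the endothelial–PBMC SAg co-culture were quantified by ELISA at 24 h post-dosing; both increases and decreases versus DMSO scored. Cytotoxicity monitored by SRB total protein in parallel cultures.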

[10] = read-out: Monokine induced gamma interferon (MIG), CXCL9 (gene 4283); assay: BSK_SAg_MIG: BioMAP Diversity Plus: SAg Assay for Monokine induced gamma interferon (MIG) Biomarker Activity (AID 2283092); settings: actives raise or lower the signal; primary human HUVEC with PBMC
Outline: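 ELISA readout of MIG/CXCL9; primary human umbilical vein endothelial cells co-cultured with peripheral blood mononuclear cells; 24 h post-dose; gain/loss fit vs DMSO baseline.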

[11] = read-out: Interleukin-8 (IL8), CXCL8 (gene 3576); assay: BSK_SAg_IL8: BioMAP Diversity Plus: SAg Assay for Interleukin-8 (IL8) Biomarker Activity (AID 2283094); settings: actives raise or lower the signal; primary human HUVEC with PBMC
Outline: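 In this co-culture of human umbilical vein endothelium with peripheral blood mononuclear cells, IL-8 is assayed by ELISA at 24 h. DMSO serves as baseline for bidirectional curve fitting.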

[12] = BSK_SAg_Proliferation: Cell Proliferation Assessment in the BioMAP Diversity Plus: SAg Assay (AID 2283095); settings: primary human HUVEC with PBMC;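 also: relative cell number as total protein by SRB absorbance in sub-confluent culture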
Outline: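 Readout is SRB-stained protein (560 nm) in a primary human HUVEC and PBMC co-culture; sub-confluent cultures are read at 96 h. Activity is fitted bidirectionally using DMSO as baseline.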

[13] = molecular target: rat Adrenergic Receptor, Beta (Adrb), Non-selective Binding, Adrb1 (gene 24925) (UniProt P18090); assay: NVS_GPCR_rAdrb_NonSelective: NovaScreen (NVS) G Protein-Coupled Receptor Assay for rat Adrenergic Receptor, Beta (Adrb), Non-selective Binding (AID 2283298; active = hit-call score of the fitted dose curve at least 0.9, where 1 is the maximum)
Sequence of UniProt P18090 (P18090 whole entry, looked up): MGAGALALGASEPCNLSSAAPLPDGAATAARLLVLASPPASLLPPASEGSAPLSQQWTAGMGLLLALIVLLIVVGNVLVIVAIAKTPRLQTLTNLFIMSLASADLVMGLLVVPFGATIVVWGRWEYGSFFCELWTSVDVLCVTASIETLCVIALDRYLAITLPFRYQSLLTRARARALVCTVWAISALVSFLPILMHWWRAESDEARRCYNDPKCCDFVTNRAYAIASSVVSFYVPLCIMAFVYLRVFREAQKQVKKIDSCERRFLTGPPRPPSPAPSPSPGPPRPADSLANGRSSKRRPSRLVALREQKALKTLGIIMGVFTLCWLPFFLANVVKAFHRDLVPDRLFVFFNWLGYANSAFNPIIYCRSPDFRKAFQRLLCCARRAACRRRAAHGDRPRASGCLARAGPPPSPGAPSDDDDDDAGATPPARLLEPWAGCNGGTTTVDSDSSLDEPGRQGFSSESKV
Outline: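 Non-selective beta-adrenergic radioligand binding in rat cortical membranes, 1 h incubation, filter-based scintillation read-out. Primary screen 25 uM in duplicate; hits retested in concentration-response up to 50 uM, DMSO baseline.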

[14] = molecular target: rat Opioid Receptor, Non-selective Binding, Oprm1 (gene 25601) (UniProt P33535); assay: NVS_GPCR_rOpiate_NonSelective: NovaScreen (NVS) G Protein-Coupled Receptor Assay for rat Opioid Receptor, Non-selective Binding (AID 2283318; active = hit-call score of the fitted dose curve at least 0.9, where 1 is the maximum)
Sequence of UniProt P33535 (P33535 whole entry, looked up): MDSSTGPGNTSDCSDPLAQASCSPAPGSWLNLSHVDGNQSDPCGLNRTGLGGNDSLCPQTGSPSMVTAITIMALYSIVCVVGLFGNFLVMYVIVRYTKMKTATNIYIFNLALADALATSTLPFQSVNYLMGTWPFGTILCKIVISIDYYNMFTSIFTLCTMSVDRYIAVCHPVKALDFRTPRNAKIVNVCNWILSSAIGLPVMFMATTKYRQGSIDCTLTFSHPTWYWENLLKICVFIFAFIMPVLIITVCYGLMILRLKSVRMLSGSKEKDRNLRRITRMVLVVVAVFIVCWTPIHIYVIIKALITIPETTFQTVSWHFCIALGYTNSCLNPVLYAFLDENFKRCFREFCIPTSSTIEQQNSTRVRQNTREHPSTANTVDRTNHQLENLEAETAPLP
Outline: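 Rat forebrain membranes, cell-free radioligand binding with filter-based scintillation counting, read 1.5 h after dosing. Primary screen in duplicate at 25 uM; actives retested in concentration series. Loss of signal versus DMSO baseline scored.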

[15] = molecular target: rat Peripheral-type Benzodiazepine Receptor (PBR), Tspo (gene 24230) (UniProt P16257); assay: NVS_MP_rPBR: NovaScreen (NVS) Membrane Protein Assay for rat Peripheral-type Benzodiazepine Receptor (PBR) (AID 2283335; active = hit-call score of the fitted dose curve at least 0.9, where 1 is the maximum)
Sequence of UniProt P16257 (P16257 whole entry, looked up): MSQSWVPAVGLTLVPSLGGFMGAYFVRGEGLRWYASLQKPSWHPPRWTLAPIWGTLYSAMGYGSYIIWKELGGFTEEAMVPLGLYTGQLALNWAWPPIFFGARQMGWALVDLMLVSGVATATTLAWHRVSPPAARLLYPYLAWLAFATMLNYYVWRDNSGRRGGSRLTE
Outline: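 Radioligand displacement, rat kidney membrane prep, 1 h exposure, filter-based scintillation read; DMSO baseline, loss-of-signal scored. Primary screen at 25 uM in duplicate, actives followed up in concentration series.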

[16] = read-out: flavin-containing dimethylaniline monooxygenases 3 (FMO3), FMO3 (gene 2328); assay: LTEA_HepaRG_FMO3: Life Technologies and Expression Analysis (LTEA) Assay for flavin-containing dimethylaniline monooxygenases 3 (FMO3) using HepaRG (AID 2283453); settings: actives raise or lower the signal; mRNA level, 48 h;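 also: differentiated human HepaRG liver cells in serum-free induction medium; FMO3 transcript by TaqMan qRT-PCR normalized to ACTB GAPDH and POLR2A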
Outline: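 HepaRG, 48 h exposure, 8-pt half-log series from 100 uM, 0.5% DMSO vehicle, duplicates; FMO3 transcript by Fluidigm TaqMan qRT-PCR, housekeeping-normalized; gain/loss fit vs DMSO.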

[17] = read-out: Peroxisomal acyl-coenzyme A oxidase 1 (ACOX1) gene, ACOX1 (gene 51); assay: LTEA_HepaRG_ACOX1: Life Technologies and Expression Analysis (LTEA) Assay for Peroxisomal acyl-coenzyme A oxidase 1 (ACOX1) gene using HepaRG (AID 2283467); settings: actives raise or lower the signal; mRNA level, 48 h
Outline: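 HepaRG cells, plated 48 h then switched to serum-free induction medium, were exposed in duplicate for 48 h to 8-point half-log concentrations up to 100 uM in 0.5% DMSO. ACOX1 mRNA was measured by qRT-PCR, normalized to ACTB/GAPDH/POLR2A, and fitted bidirectionally versus DMSO.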

[18] = read-out: succinate dehydrogenase complex iron sulfur subunit B (SDHB), SDHB (gene 6390); assay: LTEA_HepaRG_SDHB: Life Technologies and Expression Analysis (LTEA) Assay for succinate dehydrogenase complex iron sulfur subunit B (SDHB) using HepaRG (AID 2283528); settings: actives raise or lower the signal; mRNA level, 48 h
Outline: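 SDHB transcript level read by TaqMan qRT-PCR, housekeeping-normalised (ACTB, GAPDH, POLR2A), after 48 h chemical treatment of plated HepaRG cells; eight concentrations top 100 uM, half-log steps, 0.5% DMSO, duplicates; fitted both directions against DMSO.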

[19] = ACEA_AR_antagonist_AUC_viability: ACEA Biosciences xCELLigence Real-Time Cell Analysis on Androgen Receptor Antagonism for Viability (AID 2283776; active = hit-call score of the fitted dose curve at least 0.9, where 1 is the maximum;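 also: 22Rv1 human prostate cancer cells growing on impedance electrode plates; area under impedance growth curve at 80 h after dosing as viability; hits lower the growth signal relative to DMSO meaning cytotoxicity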)
Outline: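 Impedance read-out (RT-CES): area under growth curve at 80 h post-dose, loss of signal scored vs DMSO baseline. 22Rv1 cells; 8-pt 1:4 series, top 100 uM final, ≤0.5% DMSO; biological duplicate.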

[20] = CCTE_Shafer_MEA_acute_cross_correlation_area: CCTE's Neural Acute Assay for Area of Cross Correlation, Shafer Lab (AID 2284024);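 also: area under pooled inter-electrode spike cross-correlation near zero lag as percent change from own baseline; curves fitted for loss of cross-correlation area so actives lower synchrony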
Outline: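 Primary rat cortical neurons on 48-well MEA plates (16 electrodes/well) were recorded 40 min at baseline on DIV 13 or 15, then 40 min with compound (0.03-40 uM) at 37 C; cross-correlation area expressed as percent change from baseline.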

[21] = system: DIO2 (gene 1734); assay: CCTE_GLTED_hDIO2: CCTE's human Deiodinase 2 (DIO2) Inhibition Assay, Great Lakes Toxicology and Ecology Division (GLTED) Lab (AID 2284050; active = hit-call score of the fitted dose curve at least 0.9, where 1 is the maximum)
Outline: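 In this cell-free test, chemicals are exposed to human deiodinase type 2 for 3 hours. Released iodide is determined spectrophotometrically via the Sandell-Kolthoff method, and signal loss relative to DMSO is fitted.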

[22] = CCTE_Mundy_HCI_Cortical_NOG_NeuriteCount: CCTE's Neurite Outgrowth Assay in rat cortical cells for Neurite Count, Mundy Lab (AID 2284212);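 also: cells fixed about two days after chemical exposure began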
Outline: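 Neurite number per cell from high-content imaging of betaIII-tubulin immunostaining, with Hoechst nuclear counterstain.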

[23] = UKN4_HCS_LUHMES_cell_viability: Viability Assessment in the University of Konstanz (UKN) Leist Lab Neurite Outgrowth Assay in human LUHMES cells (UKN4) (AID 2284232)
Outline: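 Human dopaminergic-model LUHMES neurons were exposed to chemicals for 24 h after a 2-day differentiation. Viability was scored by imaging Hoechst H-33342 staining, with activity fitted in both directions relative to DMSO controls.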

[24] = CCTE_Mundy_HCI_Cortical_NOG_NeuronCount: CCTE's Neurite Outgrowth Assay in rat cortical cells for Neuron Count, Mundy Lab (AID 2284236; active = hit-call score of the fitted dose curve at least 0.9, where 1 is the maximum;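 also: neurons counted by imaging betaIII-tubulin and Hoechst stained cortical cells; cells exposed to compound for about 48 hours before fixation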)
Outline: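 Read-out: neuron number by high-content imaging of betaIII-tubulin (Alexa Fluor-488) and Hoechst-labelled rat primary cortical cells.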

[25] = IUF_NPC1_cytotoxicity_72hr: Cytotoxicity Assessment at 72 hours in the Leibniz Research Institute for Environmental Medicine (IUF) Neural Progenitor Cell Proliferation Assay (NPC1) (AID 2284332; active = hit-call score of the fitted dose curve at least 0.9, where 1 is the maximum;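 also: rising LDH signal means more cytotoxicity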)
Outline: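 hNPC spheres (fetal brain, gestational week 16-19) grown under proliferative EGF/FGF conditions, pH 7.2-7.6, were treated continuously for 72 h. Cytotoxicity came from LDH-coupled resazurin fluorescence in each well's supernatant.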

Measured: AC50

CN(C)CCCN1c2ccccc2Sc2ccc(Cl)cc21
active: [2] 27.9 µM | [3] 16.3 µM | [4] 28.8 µM | [5] 20 µM | [8] 31.1 µM | [9] 27.9 µM | [10] 34 µM | [11] 21.7 µM | [12] 14.8 µM | [14] 11.4 µM | [16] 70.2 µM | [17] 71 µM | [18] 12 µM | [21] 101 µM | [22] 10.6 µM | [23] 18.5 µM | [24] 15.5 µM | [25] 15.2 µM
inactive: [1] | [6] | [7] | [13] | [15] | [19] | [20]
